# Data reported in paper PMC9924070 (Science Translational Medicine, 2021).
# B1: His-tagged recombinant human FcγRIIIa (V176) (receptor)
# chain: not shown
# Target: T1, humVHH_S56A/LALA-Fc/Gen2 (human, E1D)
# T1 construct: also called XVR011
# Experiment: SPR
# Conditions: both partners purified
binder,measurement,value
B1,Kd,5.66 µM
